These results are taken from paper PMC4336329 (PLoS ONE, 2015).

Screen size: about 310,000 compounds; about 2,200 (0.71%) showed an effect of 50% or more. The effect is printed as a negative number. Some of the results follow.

The target in the assay is human ether-à-go-go-related gene (hERG) potassium channel (human, UniProt Q12809). Kind of assay: primary screen, population patch clamp on CHO cells stably expressing hERG.
Chain of human ether-à-go-go-related gene (hERG) potassium channel (Q12809 whole entry, looked up): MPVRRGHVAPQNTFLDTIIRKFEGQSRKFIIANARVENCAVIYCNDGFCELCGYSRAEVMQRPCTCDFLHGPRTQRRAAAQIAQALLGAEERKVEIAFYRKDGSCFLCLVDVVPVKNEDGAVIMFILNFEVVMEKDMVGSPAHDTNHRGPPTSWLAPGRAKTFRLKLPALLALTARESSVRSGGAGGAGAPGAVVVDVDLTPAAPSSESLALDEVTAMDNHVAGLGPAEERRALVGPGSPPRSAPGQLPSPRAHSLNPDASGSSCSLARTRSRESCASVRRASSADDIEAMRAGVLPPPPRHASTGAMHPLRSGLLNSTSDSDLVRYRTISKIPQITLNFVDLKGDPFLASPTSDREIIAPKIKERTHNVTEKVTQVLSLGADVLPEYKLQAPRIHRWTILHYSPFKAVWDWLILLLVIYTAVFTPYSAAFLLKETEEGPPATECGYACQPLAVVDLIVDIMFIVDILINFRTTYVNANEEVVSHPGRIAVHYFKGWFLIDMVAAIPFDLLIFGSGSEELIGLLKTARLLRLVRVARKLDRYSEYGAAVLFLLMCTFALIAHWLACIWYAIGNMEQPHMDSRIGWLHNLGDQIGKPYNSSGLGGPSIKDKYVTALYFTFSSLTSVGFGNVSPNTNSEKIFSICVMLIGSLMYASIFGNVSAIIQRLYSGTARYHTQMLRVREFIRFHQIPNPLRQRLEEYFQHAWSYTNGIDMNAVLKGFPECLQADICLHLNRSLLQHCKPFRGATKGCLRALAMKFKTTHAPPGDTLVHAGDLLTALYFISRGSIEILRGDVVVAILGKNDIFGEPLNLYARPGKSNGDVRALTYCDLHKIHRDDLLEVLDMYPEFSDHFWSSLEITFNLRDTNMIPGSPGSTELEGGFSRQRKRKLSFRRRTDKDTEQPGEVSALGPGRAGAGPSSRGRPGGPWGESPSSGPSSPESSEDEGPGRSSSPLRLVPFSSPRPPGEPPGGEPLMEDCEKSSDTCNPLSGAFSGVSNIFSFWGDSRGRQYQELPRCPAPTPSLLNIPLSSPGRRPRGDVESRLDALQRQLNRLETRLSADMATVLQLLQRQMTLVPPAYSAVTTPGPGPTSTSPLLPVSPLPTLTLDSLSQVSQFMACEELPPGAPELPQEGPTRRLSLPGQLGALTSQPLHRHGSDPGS
As for `Cc1[nH]c(=O)c(S(=O)(=O)c2ccccc2)c(C)c1Cl`, the “hERG current change (%, negative = inhibition) at 1uM” value came to 16.6%.
In the case of `Brc1ccc(CSc2nnc(-c3ccco3)o2)cc1`, the “hERG current change (%, negative = inhibition) at 1uM” value came out at 6.11%.
`N#C/C(=C\c1ccc(F)cc1)c1nc(-c2ccco2)cs1`: the “hERG current change (%, negative = inhibition) at 1uM” value is 11.3%.
The result for `Cc1ccc(Nc2nc(-c3sc(NC(=O)c4cccc(Cl)c4)nc3C)cs2)cc1` reads -0.49%; that for `COc1ccc([N+](=O)[O-])cc1NCC(=O)Nc1cc(S(=O)(=O)N2CCCCC2)ccc1C`, 14.2%.
Next, `CC(=O)c1cccc(NC(=O)/C(=C\c2ccco2)NC(=O)c2ccco2)c1`: -50.7%; `COc1ccccc1CNC(=O)/C=C/c1ccc(S(=O)(=O)NCc2ccco2)cc1`: 10.7%.
As for `Cc1ccccc1-n1c(=O)cc(NCc2ccc3c(c2)OCO3)[nH]c1=O`, the “hERG current change (%, negative = inhibition) at 1uM” value was -10.7%.
The result for `CN(Cc1ccccc1)c1nc(CN2CCOCC2)nc2scc(-c3ccccc3)c12` reads 5.77%; that for `CSc1nc(C)c(C(=O)C[n+]2ccc(C)cc2)cc1C#N.[Br-]`, -2.81%.
The result for `O=C(O)c1cccc(Cn2c(Cl)c(/C=N/NC(=O)c3ccco3)sc2=O)c1` reads 26.2%; that for `O=C(/C=C/c1ccccc1)c1ccc2c(c1)OCO2`, 13.2%; that for `c1ccc(COCCC2CO2)cc1` (stereo not shown), 7.68%.
For the compound `O=C(Nc1ccon1)C(Sc1ccccc1)c1ccccc1` (stereo not shown), the “hERG current change (%, negative = inhibition) at 1uM” value is -7.01%.
Consider `Cc1cnc(NC(=O)CN2CCCCC2)s1.[O-][Cl+3]([O-])([O-])O`, for which the “hERG current change (%, negative = inhibition) at 1uM” value is reported as 12.8%.
Next, `N#Cc1ccsc1NC(=O)CN1CCN(S(=O)(=O)c2ccccc2C(F)(F)F)CC1`: 1.78%; `O=C(NCc1nc2ccccc2[nH]1)C1=C[C@H](c2ccc3c(c2)OCO3)C[C@H](OCCCCO)O1`: 3.19%.
Next, `O=C(NCC(c1cccnc1)N1CCN(c2ccccc2F)CC1)c1cccc(Cl)c1` (stereo not shown): -10.5%; `COCc1nnc(NC(=O)c2c(-c3c(Cl)cccc3Cl)noc2C)s1`: 10%.
As for `CCN1CCN(C(=O)/C=C/c2ccc([N+](=O)[O-])cc2)CC1`, the “hERG current change (%, negative = inhibition) at 1uM” value was -34.9%.
With `COC(=O)c1ccc(NC(=S)NCC2CC2)cc1`, the “hERG current change (%, negative = inhibition) at 1uM” value is reported as 16%.
Turning to `CC(C)c1ccc2c(c1)c(SC(C)(C)C)c(CC(C)(C)C(=O)O)n2Cc1ccc(Cl)cc1`, the “hERG current change (%, negative = inhibition) at 1uM” value amounted to 5.14%.
For the compound `Cc1nc2c(nnn2Cc2ccccc2)c(=O)[nH]1`, the “hERG current change (%, negative = inhibition) at 1uM” value came to 13.1%.
For the compound `CC(OC(=O)c1ccc(OCC2CCCO2)cc1)C(=O)N(C)Cc1ccccc1` (stereo not shown), the “hERG current change (%, negative = inhibition) at 1uM” value was -5.76%.
`COc1cc(C(=O)OCC(C)=O)c([N+](=O)[O-])cc1OC`: the “hERG current change (%, negative = inhibition) at 1uM” value was found to be 18.9%.
Next, `O=C(CNC(=O)c1ccccc1Br)N/N=C/c1cccs1`: 9.59%.
Turning to `O=C(O)COc1ccc(NC(=O)c2ccco2)cc1`, the “hERG current change (%, negative = inhibition) at 1uM” value is recorded as 0.749%.
As for `COc1ccc(C(=O)N2CCN(C(=O)C3COc4ccccc4O3)CC2)cc1` (stereo not shown), the “hERG current change (%, negative = inhibition) at 1uM” value is given as 25.4%.
Consider `CSCCC(NC(=O)c1ccco1)C(=O)N1CCCC(C(F)(F)F)C1` (stereo not shown), for which the “hERG current change (%, negative = inhibition) at 1uM” value is given as -9.41%.
For `CCn1c(=O)c2cc(C(=O)Nc3ccccc3OC)sc2c2ccccc21`, the “hERG current change (%, negative = inhibition) at 1uM” value worked out at 13.1%.
On to `CC(C)COC(=O)c1ccc(NC(=O)C2C3CCC(C3)C2C(=O)O)cc1` (stereo not shown), for which the “hERG current change (%, negative = inhibition) at 1uM” value stood at 12.2%.
As to `COc1ccc(NC(=O)CSCc2cc(=O)n3nc(C4CC4)sc3n2)cc1`, the “hERG current change (%, negative = inhibition) at 1uM” value was determined as 9.01%.
Turning to `COc1cc(OC)cc(C(=O)N2CCN(Cc3ccccc3[N+](=O)[O-])CC2)c1.O=C(O)C(=O)O`, the “hERG current change (%, negative = inhibition) at 1uM” value is given as -7.12%.
Next, `O=C1CNC(=O)/C1=C/c1ccc(O)cc1`: 20.7%.
With `CN(Cc1ccc(Cl)cc1Cl)C(=O)CNC(=O)c1ccc2c(c1)OCO2`, the “hERG current change (%, negative = inhibition) at 1uM” value came to 4.69%.
On to `O=C1CN=C(c2ccc(Br)cc2)c2oc3ccccc3c2N1`, for which the “hERG current change (%, negative = inhibition) at 1uM” value is reported as 11.5%.
The result for `COc1ccc(O)c(CN2CCCC(C(=O)c3sccc3C)C2)c1` (stereo not shown) reads 25.8%; that for `Cl.O=C(CCCN1CCC(O)(c2cccc(C(F)(F)F)c2)CC1)c1ccc(F)cc1`, -80.9%.
As for `CCOC(=O)c1cnc2ccc(OCC)cc2c1N(C)Cc1ccccc1`, the “hERG current change (%, negative = inhibition) at 1uM” value was -2.4%.
The result for `COc1cc(NC(=O)COC(=O)/C=C/c2c(C)nn(-c3ccc(F)cc3)c2Cl)cc(OC)c1` reads 10.4%; that for `CCOC(=O)CN1NC2(CCCC(C)C2)NC1=S` (stereo not shown), 15.1%; that for `Cc1ccc(NC(=S)NCCN(C2CCCCC2)C2CCCC2)cc1`, -10.5%.
For `C=CCSc1ncccc1C(=O)NCCc1ccccc1`, the “hERG current change (%, negative = inhibition) at 1uM” value was 17.2%.
In the case of `COc1ccc(N(CC(=O)Nc2cccc(C(=O)O)c2)S(=O)(=O)c2c(C)noc2C)cc1`, the “hERG current change (%, negative = inhibition) at 1uM” value is recorded as -7.35%.
Take `COc1ccc(CCC(=O)OC(C)C(=O)c2ccc(C)cc2)cc1` (stereo not shown): the “hERG current change (%, negative = inhibition) at 1uM” value is listed as 6.03%.
In the case of `CCOC(=O)Cc1ccc(NCc2ccc(Cl)cc2)cc1.Cl`, the “hERG current change (%, negative = inhibition) at 1uM” value is given as 12.5%.
`CCN1CCN(CCCNC(=O)Cn2cc3c(n2)CCCC3)CC1`: the “hERG current change (%, negative = inhibition) at 1uM” value was determined as 8.32%.
The result for `O=C(CN1C(=O)COc2ccccc21)N1CCCc2ccccc21` reads -5.12%; that for `CCCCCCC(CC(=O)NCc1cccnc1)CC(=O)NCc1cccnc1`, 7.33%.
Regarding `CCOC(=O)CSc1cc(CS(=O)c2ccc(Cl)cc2)nc(-c2ccccc2)n1` (stereo not shown), the “hERG current change (%, negative = inhibition) at 1uM” value came to 9.75%.
Next, `COc1ccccc1NC(=S)N(Cc1ccc(C(=O)O)cc1)Cc1ccc(OC)c(OC)c1`: -0.285%; `COc1ccc2nc(Nc3nc(C)c(C(C)=O)s3)sc2c1`: 2.68%; `O=C(Cn1[nH]c(=O)c2ccccc2c1=O)N1CCN(S(=O)(=O)c2ccc(Cl)cc2)CC1`: 4.3%.
For the compound `COc1ccc(CN(Cc2ccc(OC)cc2)S(=O)(=O)c2ccc(-n3cnnn3)c(C)c2)cc1`, the “hERG current change (%, negative = inhibition) at 1uM” value was 5.82%.
Next, `CCOC(=O)c1sc(NC(=O)CSc2ncccn2)nc1C`: 6.84%; `CCOC(=O)N1CCN(C(=O)C(=O)c2cn(CC(=O)N3CCCCCC3)c3ccccc23)CC1`: -2.57%; `Cc1ccc(C(=O)NCC(=O)OCC(=O)N2CCCc3ccccc32)cc1`: -4.81%.
Regarding `COc1ccc(/C=C/C(=O)NC(=S)NN2CCCCC2c2cccnc2)cc1` (stereo not shown), the “hERG current change (%, negative = inhibition) at 1uM” value came to 7.31%.
Take `CCOc1ccccc1/C=N/Nc1nc(C)cc(=O)[nH]1`: the “hERG current change (%, negative = inhibition) at 1uM” value was 7.76%.
For `CCn1c(C)c(C(C)=O)c(N2CCCCC2)nc1=S`, the “hERG current change (%, negative = inhibition) at 1uM” value is reported as 1.29%.
Consider `CC1CCCCN1CCCNC(=O)Cn1c(=O)c2cccn2c2ccccc21` (stereo not shown), for which the “hERG current change (%, negative = inhibition) at 1uM” value is 9.96%.
Take `COc1ccc(NC(=O)C2CCN(S(=O)(=O)c3c(C)noc3C)CC2)cc1`: the “hERG current change (%, negative = inhibition) at 1uM” value was found to be 14.1%.
As to `CCOC(=O)c1ccccc1NC1c2ccccc2C(=O)N1C1CCN(C(=O)OCC)CC1` (stereo not shown), the “hERG current change (%, negative = inhibition) at 1uM” value is listed as -10.2%.
Turning to `N#CC1=C(N)Oc2c(c(=O)oc3ccccc23)C1c1ccccc1OC(=O)c1cccs1` (stereo not shown), the “hERG current change (%, negative = inhibition) at 1uM” value is 5.51%.
Turning to `C=CCn1c(NC)cc(=O)n(C)c1=O`, the “hERG current change (%, negative = inhibition) at 1uM” value came out at 13.5%.
Turning to `O=C1c2ccccc2C2(c3ccccc3)N1CCN2C(=O)C(Cl)(Cl)Cl` (stereo not shown), the “hERG current change (%, negative = inhibition) at 1uM” value is on record as 9.11%.
The result for `O=C(Cn1c(-c2ccccn2)nc2ccccc21)N/N=C/c1cccnc1` reads 1.91%.
Turning to `O=C(NC1CCCc2ccccc21)c1ccccc1` (stereo not shown), the “hERG current change (%, negative = inhibition) at 1uM” value is 20.5%.
For `CN1CCN(S(=O)(=O)c2ccc(-c3ccc(Cl)cc3)cc2)CC1`, the “hERG current change (%, negative = inhibition) at 1uM” value was found to be 5.93%.
Next, `CCOc1ccc(NC(=O)CCCN2C(=S)NC(C)(C)CC2C)cc1` (stereo not shown): 5.52%; `CCCn1c(O)c(N=Nc2ccc3ccccc3n2)c2ccccc21`: 22.1%.
Take `O=C(Cn1c(=O)[nH]c2ccccc2c1=O)N1CCN(c2cccc(Cl)c2)CC1`: the “hERG current change (%, negative = inhibition) at 1uM” value is given as 8.49%.
As to `COC(=O)c1cnn(-c2cc(Oc3cccc(C)c3)ncn2)c1N`, the “hERG current change (%, negative = inhibition) at 1uM” value worked out at 9.43%.
Consider `COc1ccccc1N/C(N)=N/c1nc(CSc2nc3ccccc3s2)cc(=O)[nH]1`, for which the “hERG current change (%, negative = inhibition) at 1uM” value turned out to be 9.23%.
For `CCOC(=O)C1CCCN(C(=O)CNC(=O)Cn2ccc3ccccc3c2=O)C1` (stereo not shown), the “hERG current change (%, negative = inhibition) at 1uM” value is reported as 1.37%.
The result for `CCCc1cc(C(=O)Nc2ccn(Cc3ccc(C)cc3)n2)no1` reads 2.17%.
`Cc1ccc(/C=C/c2ccc(=O)n(Cc3ccccc3Cl)n2)cc1`: the “hERG current change (%, negative = inhibition) at 1uM” value was 6.56%.
As for `Cc1cc(Br)cc(Br)c1OCC(=O)NNC(=O)CCC(=O)NCc1ccccc1`, the “hERG current change (%, negative = inhibition) at 1uM” value is listed as 18.8%.
As for `COc1ccccc1NS(=O)(=O)c1cc(N)ccc1N1CCCCC1`, the “hERG current change (%, negative = inhibition) at 1uM” value came to 3.73%.
With `CCN(CC)S(=O)(=O)c1cccc(-c2nnc(SCC(=O)c3cc(C)n(C)c3C)o2)c1`, the “hERG current change (%, negative = inhibition) at 1uM” value is reported as 4.87%.
The result for `COc1cc(/C=N/Nc2ccc(F)cc2F)cc(OC)c1OC` reads 1.85%; that for `CCCc1cc(=O)[nH]c(SCC(=O)N2CCCc3ccccc32)n1`, 11.8%; that for `COc1ccccc1NC(=O)c1ccccc1S(=O)(=O)c1ccc([N+](=O)[O-])cc1`, 10.5%.
In the case of `COc1ccc(/C=N/NC(=O)Nc2cccc3nsnc23)cc1OC`, the “hERG current change (%, negative = inhibition) at 1uM” value stood at 5.82%.
Next, `CCC(C)c1ccc(NC(=O)COc2c(F)c(F)c(C(F)(F)F)c(F)c2F)cc1` (stereo not shown): -25.4%; `c1ccc2c(CSCCc3ccncc3)cccc2c1`: 3.43%; `COCCN1Cc2cccc(C(=O)NC(C)CCc3ccco3)c2C1=O` (stereo not shown): 3.15%.
The result for `CCc1c(C(=O)Nc2ncn(Cc3cccc(C)c3)n2)csc1C` reads -2.33%.
